# Reference: article PMC9911399, “Two distinct binding modes provide the RNA-binding protein RbFox with extraordinary sequence specificity”
# Where a chain is given by its changes, count along the chain named. Some of the results follow.
# T1: RBFOX1 RRM (Homo sapiens, UniProt Q9NWB1 109-208)
# T1 sequence: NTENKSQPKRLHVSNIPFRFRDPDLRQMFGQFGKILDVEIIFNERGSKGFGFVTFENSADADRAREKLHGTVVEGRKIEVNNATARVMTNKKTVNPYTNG
# B1: CACCGAG (DNA:RNA)
# RNA: GGGAGACCGGAAUUCAGAUUGUCCCACCGAGUUAAAUCCCGUCGUAGCCACCA
# DNA 1: CAATCTGAATTCCGGTCTCCC
# DNA 2: TGGTGGCTACGACGGGATT
# B2: CCUGUGG (DNA:RNA)
# RNA: B1 RNA with A26C, C27U, C28G, G29U, A30G
# DNA 1: CAATCTGAATTCCGGTCTCCC
# DNA 2: TGGTGGCTACGACGGGATT
# B3: CGUGCAA (DNA:RNA)
# RNA: B1 RNA with A26G, C27U, C28G, G29C, G31A
# DNA 1: CAATCTGAATTCCGGTCTCCC
# DNA 2: TGGTGGCTACGACGGGATT
# B4: GGUGAGC (DNA:RNA)
# RNA: GGGAGACCGGAAUUCAGAUUGUCCGGUGAGCUUAAAUCCCGUCGUAGCCACCA
# DNA 1: CAATCTGAATTCCGGTCTCCC
# DNA 2: TGGTGGCTACGACGGGATT
# B5: CGCUUGU (DNA:RNA)
# RNA: B1 RNA with A26G, C28U, G29U, A30G, G31U
# DNA 1: CAATCTGAATTCCGGTCTCCC
# DNA 2: TGGTGGCTACGACGGGATT
# B6: CUAUUUC (DNA:RNA)
# RNA: B1 RNA with A26U, C27A, C28U, G29U, A30U, G31C
# DNA 1: CAATCTGAATTCCGGTCTCCC
# DNA 2: TGGTGGCTACGACGGGATT
# B7: AGUAACU (DNA:RNA)
# RNA: B4 RNA with G25A, G28A, G30C, C31U
# DNA 1: CAATCTGAATTCCGGTCTCCC
# DNA 2: TGGTGGCTACGACGGGATT
# B8: GAUGCGA (DNA:RNA)
# RNA: B4 RNA with G26A, A29C, C31A
# DNA 1: CAATCTGAATTCCGGTCTCCC
# DNA 2: TGGTGGCTACGACGGGATT
# B9: CUUCCGG (DNA:RNA)
# RNA: B1 RNA with A26U, C27U, G29C, A30G
# DNA 1: CAATCTGAATTCCGGTCTCCC
# DNA 2: TGGTGGCTACGACGGGATT
# B10: GGAGCUG (DNA:RNA)
# RNA: B4 RNA with U27A, A29C, G30U, C31G
# DNA 1: CAATCTGAATTCCGGTCTCCC
# DNA 2: TGGTGGCTACGACGGGATT
# B11: UUUUAAA (DNA:RNA)
# RNA: B4 RNA with G25U, G26U, G28U, G30A, C31A
# DNA 1: CAATCTGAATTCCGGTCTCCC
# DNA 2: TGGTGGCTACGACGGGATT
# B12: CUGAAAU (DNA:RNA)
# RNA: B1 RNA with A26U, C27G, C28A, G29A, G31U
# DNA 1: CAATCTGAATTCCGGTCTCCC
# DNA 2: TGGTGGCTACGACGGGATT
# B13: GGUAACC (DNA:RNA)
# RNA: B4 RNA with G28A, G30C
# DNA 1: CAATCTGAATTCCGGTCTCCC
# DNA 2: TGGTGGCTACGACGGGATT
# B14: AGAUUUC (DNA:RNA)
# RNA: B4 RNA with G25A, U27A, G28U, A29U, G30U
# DNA 1: CAATCTGAATTCCGGTCTCCC
# DNA 2: TGGTGGCTACGACGGGATT
# B15: ACGGUAA (DNA:RNA)
# RNA: B1 RNA with C25A, A26C, C27G, C28G, G29U, G31A
# DNA 1: CAATCTGAATTCCGGTCTCCC
# DNA 2: TGGTGGCTACGACGGGATT
# B16: GCACUCA (DNA:RNA)
# RNA: B1 RNA with C25G, A26C, C27A, G29U, A30C, G31A
# DNA 1: CAATCTGAATTCCGGTCTCCC
# DNA 2: TGGTGGCTACGACGGGATT
# B17: AGUCGUA (DNA:RNA)
# RNA: B1 RNA with C25A, A26G, C27U, A30U, G31A
# DNA 1: CAATCTGAATTCCGGTCTCCC
# DNA 2: TGGTGGCTACGACGGGATT
# B18: GUACAUA (DNA:RNA)
# RNA: B4 RNA with G26U, U27A, G28C, G30U, C31A
# DNA 1: CAATCTGAATTCCGGTCTCCC
# DNA 2: TGGTGGCTACGACGGGATT
# B19: AAGCUUC (DNA:RNA)
# RNA: B1 RNA with C25A, C27G, G29U, A30U, G31C
# DNA 1: CAATCTGAATTCCGGTCTCCC
# DNA 2: TGGTGGCTACGACGGGATT
# B20: ACCCACG (DNA:RNA)
# RNA: B1 RNA with C25A, A26C, G29A, A30C
# DNA 1: CAATCTGAATTCCGGTCTCCC
# DNA 2: TGGTGGCTACGACGGGATT
# Molecular target: T1, RBFOX1 RRM
# Test: EMSA; HiTS-Eq, 1 nM pool, 10 min; buffer printed only for the single-RNA assays: 10 mM Tris pH 7.5, 150 mM NaCl, 3.4 mM EDTA, 0.001% NP-40, 30 C
# Settings: tags: His6 N-terminal (pET28a); label: 5' 32P
# How it was run: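 Purified wild-type or mutant RbFox RRM at increasing concentrations was equilibrated with 1 nM of 5′-radiolabelled RNA carrying 7 randomized nucleotides for 10 min in 50 µL. Unbound RNA was separated by 8% native PAGE and sequenced. Relative association constants came from read-count changes of each RNA species compared with the control reaction, normalised to the cognate motif.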
row,Binder,binding signal
1,B1,0.00504 KA relative to UGCAUGU
2,B2,0.00622 KA relative to UGCAUGU
3,B3,0.00925 KA relative to UGCAUGU
4,B4,0.0174 KA relative to UGCAUGU
5,B5,0.0265 KA relative to UGCAUGU
6,B6,0.00361 KA relative to UGCAUGU
7,B7,0.00464 KA relative to UGCAUGU
8,B8,0.0154 KA relative to UGCAUGU
9,B9,0.00903 KA relative to UGCAUGU
10,B10,0.0192 KA relative to UGCAUGU
11,B11,0.00266 KA relative to UGCAUGU
12,B12,0.00704 KA relative to UGCAUGU
13,B13,0.0112 KA relative to UGCAUGU
14,B14,0.00933 KA relative to UGCAUGU
15,B15,0.00861 KA relative to UGCAUGU
16,B16,0.00606 KA relative to UGCAUGU
17,B17,0.00771 KA relative to UGCAUGU
18,B18,0.00218 KA relative to UGCAUGU
19,B19,0.00771 KA relative to UGCAUGU
20,B20,0.000605 KA relative to UGCAUGU
